Source: PubChem BioAssay AID938 (National Center for Advancing Translational Sciences (NCATS), 2007)
Among all 73,000 compounds or so, about 1,800 (2.5%) were called active. The inconclusive results got no clear call from the source; some entries with a clear call stand among them for comparison. Calls follow the shape of the dose curve; as a rule, active = well fitted activation curve with a large enough effect; inconclusive = small, poorly fitted or top-dose-only effect; inactive = no such curve, though single readings can be large or run the other way. Potencies of inconclusive entries are left out as doubtful fits.
Potency is read from the fitted curve at half-maximal effect; tags tell the direction and shape of the fitted curve.

Experiment: qHTS Assay for Agonists of the Thyroid Stimulating Hormone Receptor: Activators of Intracellular cAMP Concentrations in Parental HEK 293; also: nearly all actives have a fitted effect of over 55% in size
Conditions: parental HEK293 CNG cAMP sensor, membrane potential fluorescence; series mostly up to 57.1 µM
Method in brief: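 Counterscreen for endogenous-receptor signalling: CNG-channel HEK 293 cells report cAMP rise by membrane depolarization. After 60 min dye equilibration with 100 uM RO 20-1724, compounds incubated 30 min before bottom-read fluorescence at 590 nm.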
With Cc1cc(C)n(-c2ccc(C(=O)Oc3ccc4c(c3)OCO4)cc2)n1 the Potency was inconclusive [activator, single point].
In the case of CCOC(=O)N1CCC(N2C(=O)c3ccc(C(=O)O)cc3C2=O)CC1, the Potency is reported as inconclusive [activator, single point].
In the case of COC(=O)CNC(=O)[C@@]1(C)C=C[C@@H](Cc2ccccc2)N1C(=O)OC, the Potency is reported as “inactive”.
For CC1CCc2nc(NC(=O)CN3CCN(Cc4ccc5c(c4)OCO5)CC3)sc2C1 (stereo not given), the Potency was inconclusive [activator, partial curve].
In the case of Cc1c(Br)cc(-c2nnco2)cc1Br, the Potency is reported as inconclusive [activator, partial curve].
With O=C(OCc1nnc(-c2ccc(Cl)cc2)o1)c1ccc(=O)n(Cc2ccccc2)n1 the Potency was “inactive”.
With CCOC(=O)c1c(C)[nH]c(C)c1C(=O)CSc1nnc(-c2ccco2)n1Cc1ccccc1 the Potency was inconclusive [activator, partial curve].
With Cc1ccc(-n2nc(C)c3c(-c4cccs4)c(C#N)c(N)nc32)cc1 the Potency was inconclusive [activator, single point].
For CC1CN(c2oc(-c3ccco3)nc2S(=O)(=O)c2ccccc2)CC(C)O1 (stereo not given), the Potency was “inactive”.
With Cc1ccc(NC(=O)CC(=O)NCCN2CCOCC2)cc1 the Potency was inconclusive [activator, single point].
For COCc1cc(=O)[nH]c(/N=C(\N)Nc2ccc(C)cc2)n1, the Potency was inconclusive [activator, single point].
For COc1cccc(Oc2cn[nH]c2-c2ccc(OC)cc2O)c1, the Potency was inconclusive [activator, single point].
With COc1ccc(CNc2nc3c(c(C(F)(F)F)n2)CCCCC3)cc1 the Potency was inconclusive [activator, partial curve].
For Cc1ccc(C(c2nnnn2CC2CCCO2)N2CCN(C(=O)c3ccco3)CC2)cc1 (stereo not given), the Potency was inconclusive [activator, single point].
In the case of O=C(COCc1nc2ccccc2c(=O)[nH]1)NC1CCCC1, the Potency is reported as inconclusive [activator, single point].
With CC(C)C(c1nnnn1Cc1cccs1)N1CCN(C2CCCC2)CC1 (stereo not given) the Potency was inconclusive [activator, full curve].
With O=C(O)c1ccc2cc[nH]c2c1 the Potency was “inactive”.
In the case of COc1ccc(C)cc1NC(=O)NCCC1=CCCCC1, the Potency is reported as “inactive”.
For O=C(Nc1ccccc1O)c1cc(S(=O)(=O)N2CCOCC2)ccc1Cl, the Potency was “inactive”.
For N#Cc1cc2c(nc1SCc1cccnc1)CCCC2, the Potency was inconclusive [activator, partial curve].
In the case of COc1ccc(-c2csc3nc(C)n(-n4cccc4)c(=O)c23)cc1, the Potency is reported as inconclusive [activator, single point].
With CCN(CC)CCCNC(=O)c1cc(-c2ccc(Cl)c(Cl)c2)on1 the Potency was inconclusive [activator, single point].
For c1ccc(-n2cnc3cc(NCc4ccncc4)ccc32)cc1, the Potency was “inactive”.
In the case of COc1ccc(COC(=O)c2ccc(N3CCCC3=O)cc2)cc1F, the Potency is reported as inconclusive [activator, single point].
For O=C(NCc1ccco1)c1cc2sccc2n1Cc1ccccc1, the Potency was inconclusive [activator, partial curve].
In the case of N=c1c2c(-c3ccccc3)c(-c3ccccc3)n(Cc3ccco3)c2ncn1CCN1CCOCC1, the Potency is reported as inconclusive [activator, single point].
With CN(C)CCOC(=O)C1(c2ccccc2)CCOCC1 the Potency was inconclusive [activator, partial curve].
In the case of Cc1cccc2cc(CN(Cc3ccc(F)cc3)Cc3nnnn3C3CCCC3)c(=O)[nH]c12, the Potency is reported as inconclusive [activator, single point].
For CCN(CC)Cc1c(C(=O)OC)nnn1-c1nonc1N, the Potency was inconclusive [activator, single point].
In the case of CCOC(=O)c1cc2occc2n1CC(=O)NC1CCCCC1C (stereo not given), the Potency is reported as active: 12.6 µM.
For Cc1ccc(C[C@H](Cc2nc3ccccc3[nH]2)c2nc3ccccc3[nH]2)cc1, the Potency was “inactive”.
With Cc1nc2ccc(NC(=O)Nc3ccnc4cccnc34)cc2o1 the Potency was “inactive”.
For CSc1nnc2c(n1)OC=Nc1ccccc1-2, the Potency was “inactive”.
With Cc1noc(C)c1S(=O)(=O)N(CC(=O)N1CCn2c1nc1ccccc12)c1ccc(C(C)C)cc1 the Potency was “inactive”.
With CCC(CC)C(=O)Nc1cccc(-c2nc3ccccc3o2)c1 the Potency was “inactive”.
In the case of Cc1ccc(SCc2cc(=O)[nH]c(N3CCN(Cc4ccc5c(c4)OCO5)CC3)n2)cc1, the Potency is reported as inconclusive [activator, partial curve].
For CCn1c(SCC(=O)N2CCCc3ccccc32)nnc1-c1cccs1, the Potency was “inactive”.
For CCOC(=O)c1c(-c2ccccc2)oc2ccc(O)c(CN3CCOCC3)c12, the Potency was inconclusive [activator, partial curve].
For Cc1cccc(-c2nc(CSCC(=O)N3CCN(c4ccccn4)CC3)c(C)o2)c1, the Potency was inconclusive [activator, single point].
In the case of O=C(c1cccc(F)c1)N1CCN(c2cccc(Cl)c2)CC1, the Potency is reported as “inactive”.
For O=C(CN1CCC(n2nnc3cc(F)ccc32)CC1)NC1CCCCC1, the Potency was inconclusive [activator, single point].
In the case of Cn1c(CSc2ccccc2)c(C#N)c2ccccc21, the Potency is reported as active: 25.1 µM.
For CCNc1ncc2nc(C)c(=O)n(CCc3ccccc3)c2n1, the Potency was “inactive”.
In the case of CCOC(=O)c1c(-c2ccc(C)o2)csc1NC(=O)CSc1nnnn1-c1ccccc1, the Potency is reported as inconclusive [activator, single point].
With Cc1c(C(=O)N2CCc3ccccc3C2)sc2nc(-c3ccccc3)cn12 the Potency was inconclusive [activator, single point].
For CC12CN3CCN(CC(C3)C1(O)CN1CCCCC1)C2 (stereo not given), the Potency was inconclusive [activator, single point].
With C#CCNc1c(C)c(C)nc2ncnn12 the Potency was inconclusive [activator, single point].
In the case of CCN(CC)CCNC(=O)c1ccccc1C(=O)c1ncc[nH]1, the Potency is reported as “inactive”.
For CCOC(=O)CN1C(=O)C(O)(CC(=O)c2ccccn2)c2ccccc21 (stereo not given), the Potency was inconclusive [activator, single point].
With Cc1ccc(C(c2nnnn2CC2CCCO2)N2CCN(c3cccc(C)c3C)CC2)cc1 (stereo not given) the Potency was inconclusive [activator, full curve, poor fit].
For COc1ccc(OC)c(C(=O)c2coc3ccc(OC)cc23)c1, the Potency was active: 10 µM.
In the case of C=CCn1c(Cc2csc(N)n2)nnc1SCC(=O)OCC, the Potency is reported as “inactive”.
With CC(c1ccco1)N(C(=O)c1ccc(Cl)s1)c1ccccn1 (stereo not given) the Potency was inconclusive [activator, single point].
With Cn1nnnc1SCC(=O)Nc1ccc(Oc2ccc(Cl)cc2)cc1 the Potency was inconclusive [activator, single point].
For N[C@H](Cn1ccc(=O)n(Cc2ccccc2C(=O)O)c1=O)C(=O)O, the Potency was “inactive”.
For CN(C)c1ncc2nc(-c3cccc(C#N)c3)c(=O)n(C[C@H]3CCCO3)c2n1, the Potency was inconclusive [activator, partial curve].
With COc1ccc(C(c2nnnn2Cc2cccs2)N2CCN(c3ccccc3F)CC2)cc1 (stereo not given) the Potency was active: 20 µM.
In the case of Cc1nn(C)c(C)c1NC(=O)c1ccnn1C, the Potency is reported as inconclusive [activator, single point].
For CNc1nc(-c2cccnc2)nc2ccccc12, the Potency was “inactive”.
In the case of c1ccc(CCc2ccccc2-c2nc(-c3cccnc3)no2)cc1, the Potency is reported as inconclusive [activator, partial curve].
With Cc1cccc(NS(=O)(=O)c2cc(C(=O)O)ccc2Cl)c1 the Potency was “inactive”.
With NC(=O)c1c(NC(=O)CN2CCCC2)sc2c1CCCC2 the Potency was inconclusive [activator, single point].
With O=C(CN1CCN(S(=O)(=O)c2ccc(Cl)cc2)CC1)Nc1ccc2c(c1)OCO2 the Potency was inconclusive [activator, single point].
In the case of COc1cc(C2C(C(N)=O)=C(C)Nc3nc(CCCO)nn32)cc(OC)c1OC (stereo not given), the Potency is reported as inconclusive [activator, partial curve, poor fit].
In the case of CCCCCCn1c(CN2CCCCC2)nc2c1c(=O)n(C)c(=O)n2C, the Potency is reported as inconclusive [activator, full curve, poor fit].
For COc1ccc(OC)c(CNC(=O)C2CCN(S(=O)(=O)N3CCCC3)CC2)c1, the Potency was “inactive”.
In the case of O=C(CN1C(=O)COc2ccccc21)c1ccc(Cl)cc1, the Potency is reported as inconclusive [activator, partial curve].
With CCOC(=O)c1c(NC(C)=O)sc2c1CCCNC2=O the Potency was “inactive”.
In the case of COc1ccc(C(=O)CSc2nc(C)cc(=O)[nH]2)cc1, the Potency is reported as inconclusive [activator, single point].
With C=CCn1c(N)c(C(=O)OC(C)CC)c2nc3ccccc3nc21 (stereo not given) the Potency was “inactive”.
In the case of Cc1ccnc(NC(=O)Nc2cccc(F)c2)c1, the Potency is reported as “inactive”.
In the case of Cc1c(C(Nc2ccccn2)c2ccc(Cl)cc2)c(=O)n(-c2ccccc2)n1C (stereo not given), the Potency is reported as inconclusive [activator, partial curve].
In the case of Cc1cc(=O)oc2cc(OC(C)C)ccc12, the Potency is reported as “inactive”.
In the case of CC1(C)Oc2ccc3ccc(=O)oc3c2C(N2CCCCC2)C1O (stereo not given), the Potency is reported as inconclusive [activator, single point].
For COC(=O)C1=C(N)Oc2cc(C)n(C)c(=O)c2C1c1ccc(Cl)c(Cl)c1 (stereo not given), the Potency was inconclusive [activator, single point].
